# Reference: PubChem BioAssay AID1671194 (National Center for Advancing Translational Sciences (NCATS), 2021)
# Among all 140,000 compounds or so, about 240 (0.17%) were called active. The inconclusive results got no clear call from the source; some entries with a clear call stand among them for comparison. The call rests on the fitted dose curve; in most records, active means well fitted inhibition curve with a large enough effect; inconclusive means small, poorly fitted or top-dose-only effect; inactive means no such curve, though single readings can be large or run the other way. Potencies beside an inconclusive call are fits to weak or partial responses and may not hold up.
# Assay: Primary qHTS assay for inhibitors of alpha-synuclein gene (SNCA) expression; further: nearly all actives have a fitted effect of over 45% in size
# Settings: HEK-293 SNCA-luciferase knock-in, luminescence, 24 h; series mostly up to 57.2 µM
# Potency means the concentration at half of the fitted maximal effect; tags describe the fitted curve by direction and shape.
row,Compound,Potency
1,O=C(Cn1nc2c(cc1=O)CCCCC2)Nc1nccs1,inactive
2,Fc1cc(Nc2ncc(-c3cccnc3)c3c2OCC3)cc(N2CCOCC2)c1,"inconclusive: 31.6 µM [inhibitor, single point]"
3,COc1ccc(-c2nn(-c3ccc(F)cc3)c3c2cnc2cc4c(cc23)OCO4)cc1,"inconclusive: 2.51 µM [inhibitor, single point]"
4,COc1cc(F)cc(-c2ncc3c(n2)OCCN(C)C3=O)c1,inactive
5,CC(=O)N1CCC(c2nnc3n2C(C(=O)NCc2ccc(Cl)cc2)CC3)CC1 (stereo not given),inactive
6,O=C1c2cnc(-c3cccc(O)c3)nc2OCCN1c1cccc(C(F)(F)F)c1,inactive
7,O=C(NC1CC(=O)N(CCc2ccc(F)cc2)C1)C1CCCCC1 (stereo not given),"inconclusive: 6.31 µM [inhibitor, single point]"
8,COc1ccccc1Cn1c(=O)c(C(=O)NCC(F)(F)F)nc2cccnc21,inactive
9,COc1ccc(C2=NC3(CCCCCC3)N(CC(=O)Nc3cccc(Cl)c3)C2=O)cc1,"inconclusive: 39.8 µM [inhibitor, single point]"
10,O=C(NCCc1ccccc1)N1CCC(c2noc(-c3ccccc3)n2)C1 (stereo not given),"inconclusive: 8.91 µM [inhibitor, single point]"
11,O=C(N1CCOCC1)N1C2CCC1CN(c1ccc(C(F)(F)F)cc1)C2,inactive
12,O=C(Cc1ccc(C(F)(F)F)cc1)N1CC(COc2ccccc2)C2(C1)CN(C(=O)c1cn[nH]c1)C2 (stereo not given),"inconclusive: 39.8 µM [inhibitor, single point]"
13,C=CCNC(=O)Cc1c2c(n(Cc3ccccc3F)c1C)CCCC2=O,"inconclusive: 5.01 µM [inhibitor, partial curve, poor fit]"
14,CC(C)NC(=O)c1cc(-c2ccccc2F)cc2c1OCCN2Cc1cccnc1,"inconclusive: 14.1 µM [inhibitor, partial curve, poor fit]"
15,CC(NC(=O)c1ccc2oc(-c3ccc(C(F)(F)F)cc3)nc2c1)c1cnn(C)c1 (stereo not given),"inconclusive: 25.1 µM [inhibitor, single point]"
16,CC1CCN(C(=O)Cn2cc(SCC(=O)Nc3ccccc3C(F)(F)F)c3ccccc32)CC1,"inconclusive: 25.1 µM [inhibitor, single point]"
17,O=C1N(c2ccccc2)c2ccccc2C12CCN(Cc1ccc(F)cc1)C2 (stereo not given),inactive
18,COc1ccc2nc(C[C@@H]3C[C@@H](C(C)C)[C@H](CNC(=O)Nc4ccc(F)cc4)C=C3C)[nH]c2c1,"inconclusive: 28.2 µM [inhibitor, single point]"
19,COc1ccc(CN2CC(C(C)(C)C)Oc3nc(C)ccc3C2=O)cc1 (stereo not given),inactive
20,O=C(c1cncc(Br)c1)N1CCCN(c2ccnc3ccnn23)CC1,"inconclusive: 39.8 µM [inhibitor, single point]"
21,Cc1ccc(CN2C(=O)C(=O)c3cc(Br)cc(C)c32)cc1,active: 22.4 µM
22,COc1ccc(CNC(=O)c2cnn(-c3ccc(OC)cc3)c2C2CCN(C(=O)OC(C)(C)C)CC2)cc1,"inconclusive: 15.8 µM [inhibitor, partial curve, poor fit]"

row,Compound,Potency
1,Cc1cn2nc(C(=O)N3CCC(NC(=O)c4ccc(F)cc4)CC3)cc2c(=O)[nH]1,"inconclusive: 8.91 µM [inhibitor, single point]"
2,O=C(c1cc(C(F)(F)F)[nH]n1)N1CC[C@@H](c2ccc(F)cc2)[C@H](O)C1,inactive
3,O=C1c2[nH]nc(-c3ccccc3O)c2C(c2cccc(Br)c2)N1Cc1ccncc1 (stereo not given),"inconclusive: 3.16 µM [inhibitor, partial curve, poor fit]"
4,CC(C)CCC(=O)N1CC[C@@H](NC(=O)c2cccnc2)[C@@H](CO)C1,inactive
5,Clc1ccc(-c2cnc3n[nH]c(-c4ccccc4)c3n2)cc1,"inconclusive: 63.1 µM [inhibitor, single point]"
6,FC(F)(F)C1CN(c2cc(N3CCOCC3)ncn2)CCO1 (stereo not given),inactive
7,CCN1CCCC2(Cc3ccccc3CN(C(=O)CCC(=O)O)C2)C1 (stereo not given),"inconclusive: 3.55 µM [inhibitor, full curve, poor fit]"
8,O=C(Cc1cccc(F)c1)NCc1nnc2ccc(-c3ccc(Cl)cc3)nn12,inactive
9,CCOC(=O)c1cc(-c2ccccc2)n(-c2cccc(C(=O)NC(C)CC)c2)c1C (stereo not given),"inconclusive: 17.8 µM [inhibitor, partial curve, poor fit]"
10,Cc1ccc(-c2cc3c(=O)n(CCNC(=O)c4cccc(C#N)c4)ccn3n2)c(C)c1,inactive
11,COC(=O)c1cccc(Nc2c(-c3ccc(O)cc3)nc3nc[nH]n23)c1,inactive
12,COC(=O)CSCc1nc(-c2ccc(C(=O)OC)cc2)oc1C,"inconclusive: 4.47 µM [inhibitor, full curve, poor fit]"
13,O=C(NC1CCCCC1)O[C@@H]1CO[C@H]2[C@@H]1OC[C@@H]2n1nnnc1Sc1ccccc1,inactive
14,FC(F)(F)c1cc(CN2CC[C@@]3(CCCNC3)C2)cc(C(F)(F)F)c1,"inconclusive: 5.62 µM [inhibitor, full curve, poor fit]"
15,CCn1ncc(N2CCC(NC(=O)c3ccc(C)c(F)c3)CC2)cc1=O,inactive
16,O=C1CC2(CCN(Cc3ccc(F)cc3)CC2)Oc2cc(Cl)ccc21,"inconclusive: 12.6 µM [inhibitor, single point]"
17,CCCCc1cc(C[C@H]2CNCC[C@H]2CC(=O)Nc2ccccc2)no1,inactive
18,COc1cccc(-n2c(-c3ccco3)nc3c(cnn3-c3ccccc3C)c2=O)c1,"inconclusive: 28.2 µM [inhibitor, single point]"
19,FC(F)(F)c1ccc(N2C3CCC2CN(Cc2ccc(-c4cccs4)cc2)C3)cc1,"inconclusive: 3.98 µM [inhibitor, full curve, poor fit]"
20,O=C(NC1CCN(c2cc(-c3ccc(F)cc3)[nH]n2)C1)c1ccc(F)c(F)c1 (stereo not given),"inconclusive: 39.8 µM [inhibitor, single point]"
21,COc1cccc(CCC(=O)N2CCCC(CO)(CC3CC3)C2)c1 (stereo not given),"inconclusive: 25.1 µM [inhibitor, partial curve, poor fit]"
22,Cc1ccc(OCc2ccc(-c3nc(C#N)c(N4CCN(c5cccc(Cl)c5)CC4)o3)o2)cc1,inactive

row,Compound,Potency
1,COc1ccc(-c2cn(C)c(=O)n3cc(COc4ccc(C(=O)O)cc4)nc23)c(C)c1,"inconclusive: 2.82 µM [inhibitor, partial curve, poor fit]"
2,COc1ccc(N2CCN(c3oc(-c4ccccc4C)nc3S(=O)(=O)c3ccccc3)CC2)cc1,"inconclusive: 7.08 µM [inhibitor, single point]"
3,COC[C@@H]1CN(c2cnccn2)C[C@H]1C(=O)NCCCn1cccn1,inactive
4,O=C(c1ccncc1)N1CCC(Oc2ccccc2-c2nc(-c3ccccc3)no2)C1 (stereo not given),inactive
5,CSc1cccc(NC(=O)O[C@@H]2CC[C@]3(C)C(CC[C@@H](O)[C@H]3CC(=O)N3CCC(C)CC3)[C@]2(C)CO)c1 (stereo not given in full),"inconclusive: 35.5 µM [inhibitor, single point]"
6,COc1ccc(CCN(Cc2ccccc2F)CC2(O)CCCNC2)cc1 (stereo not given),inactive
7,O=C1NCc2ccccc2CC12CCN(Cc1ccc(Cl)s1)C2 (stereo not given),"inconclusive: 5.62 µM [inhibitor, single point]"
8,COc1ccc(-c2cc3nc4c(c(=O)n3[nH]2)CN(C(=O)CCCc2c[nH]c3ccccc23)CC4)cc1,"inconclusive: 10 µM [inhibitor, partial curve, poor fit]"
9,COc1cccc(-c2c(C(=O)NCCCc3ccccc3)nc3sccn23)c1,"inconclusive: 39.8 µM [inhibitor, single point]"
10,O=C(NC1CCN(c2cc(-c3cccs3)[nH]n2)C1)c1cccc(OC(F)(F)F)c1 (stereo not given),inactive
11,CC(C)(C)C(=O)N1CCCC(C(=O)N2CCC(N3CCOC3=O)CC2)C1 (stereo not given),inactive
12,COCc1ccc2c(c1)c(OC(C)(C)C(=O)NCCN1CCOCC1)nn2Cc1ccccc1,"inconclusive: 3.98 µM [inhibitor, full curve, poor fit]"
13,Cc1nn(C)c2ncnc(N3CCC4(C3)C(=O)N(CC(N)=O)c3ccccc34)c12 (stereo not given),"inconclusive: 2 µM [inhibitor, partial curve, poor fit]"
14,COc1cccc(-c2ccc(CN3CCCC(NC(=O)c4ccccc4F)C3)cc2)c1 (stereo not given),"inconclusive: 8.91 µM [inhibitor, single point]"
15,CC(C)(C)c1ccc(C(=O)Nc2nc3c(s2)C[C@@H]2[C@](C)(CO)[C@H](O)CC[C@@]2(C)[C@@H]3CC(=O)NCc2ccco2)cc1,inactive
16,Cc1cc(C)cc(-c2ccc(CN3C4CCC3CN(C(=O)Nc3ccccc3F)C4)cc2)c1,"inconclusive: 39.8 µM [inhibitor, single point]"
17,Cc1cc(Cn2cc3c4c(cccc42)[C@H](CC(C)C)N[C@H](C(=O)NC(C)C)C3)no1,"inconclusive: 56.2 µM [inhibitor, single point]"
18,O=C(NCc1ccc(F)cc1)c1ccc2nnc(-c3cc(C(F)(F)F)cc(C(F)(F)F)c3)n2c1,"inconclusive: 31.6 µM [inhibitor, single point]"
19,CCc1noc(-c2cn(C3CCCN(C(=O)c4ccc(F)c(F)c4)C3)nn2)n1 (stereo not given),"inconclusive: 6.31 µM [inhibitor, full curve]"
20,CC(=O)Nc1ccccc1OCc1cc(=O)n2c(C)csc2n1,"inconclusive: 1.58 µM [inhibitor, partial curve, poor fit]"
21,CC(=O)c1cccc(NC(=O)Cn2c(N3CCc4ccccc4C3)nc(C)cc2=O)c1,"inconclusive: 3.98 µM [inhibitor, partial curve, poor fit]"
